± gives the standard deviation of the averaged measurements. Laboratory Escherichia coli strains with one amino-acid change in an essential protein, pooled on minimal glucose agar with carbenicillin or gentamicin at twice the control MIC (plus kanamycin and chloramphenicol for the plasmids), 48 h. Fold change of barcode share against drug-free plates; higher = less susceptible. Active = above 20 in both replicates (the paper's putatively resistant). '<' = one read or none on drug, '>' = one read or none on a drug-free plate. Shares are relative, so most strains fall below 1 when a few take over. Listed are strains with at least 15 reads on both drug-free plates, and hits; most hits rest on fewer reference reads. Replicate rank correlation about 0.5. Edits are read from barcodes.
B1: argH M341A (protein)
chain: MALWGGRFTQAADQRFKQFNDSLRFDYRLAEQDIVGSVAWSKALVTVGVLTAEEQAQLEEALNVLLEDVRARPQQILESDAEDIHSWVEGKLIDKVGQLGKKLHTGRSRNDQVATDLKLWCKDTVSELLTANRQLQSALVETAQNNQDAVMPGYTHLQRAQPVTFAHWCLAYVEMLARDESRLQDALKRLDVSPLGCGALAGTAYEIDREQLAGWLGFASATRNSLDSVSDRDHVLELLSAAAIGMVHLSRFAEDLIFFNTGEAGFVELSDRVTSGSSLMPQKKNPDALELIRGKCGRVQGALTGMMMTLKGLPLAYNKDMQEDKEGLFDALDTWLDCLHAAALVLDGIQVKRPRCQEAAQQGYANATELADYLVAKGVPFREAHHIVGEAVVEAIRQGKPLEDLPLSELQKFSQVIDEDVYPILSLQSCLDKRAAKGGVSPQQVAQAIAFAQARLG
B2: argH M341D (protein)
chain: MALWGGRFTQAADQRFKQFNDSLRFDYRLAEQDIVGSVAWSKALVTVGVLTAEEQAQLEEALNVLLEDVRARPQQILESDAEDIHSWVEGKLIDKVGQLGKKLHTGRSRNDQVATDLKLWCKDTVSELLTANRQLQSALVETAQNNQDAVMPGYTHLQRAQPVTFAHWCLAYVEMLARDESRLQDALKRLDVSPLGCGALAGTAYEIDREQLAGWLGFASATRNSLDSVSDRDHVLELLSAAAIGMVHLSRFAEDLIFFNTGEAGFVELSDRVTSGSSLMPQKKNPDALELIRGKCGRVQGALTGMMMTLKGLPLAYNKDMQEDKEGLFDALDTWLDCLHDAALVLDGIQVKRPRCQEAAQQGYANATELADYLVAKGVPFREAHHIVGEAVVEAIRQGKPLEDLPLSELQKFSQVIDEDVYPILSLQSCLDKRAAKGGVSPQQVAQAIAFAQARLG
B3: argH M341Q (protein)
chain: MALWGGRFTQAADQRFKQFNDSLRFDYRLAEQDIVGSVAWSKALVTVGVLTAEEQAQLEEALNVLLEDVRARPQQILESDAEDIHSWVEGKLIDKVGQLGKKLHTGRSRNDQVATDLKLWCKDTVSELLTANRQLQSALVETAQNNQDAVMPGYTHLQRAQPVTFAHWCLAYVEMLARDESRLQDALKRLDVSPLGCGALAGTAYEIDREQLAGWLGFASATRNSLDSVSDRDHVLELLSAAAIGMVHLSRFAEDLIFFNTGEAGFVELSDRVTSGSSLMPQKKNPDALELIRGKCGRVQGALTGMMMTLKGLPLAYNKDMQEDKEGLFDALDTWLDCLHQAALVLDGIQVKRPRCQEAAQQGYANATELADYLVAKGVPFREAHHIVGEAVVEAIRQGKPLEDLPLSELQKFSQVIDEDVYPILSLQSCLDKRAAKGGVSPQQVAQAIAFAQARLG
B4: argH M341W (protein)
chain: MALWGGRFTQAADQRFKQFNDSLRFDYRLAEQDIVGSVAWSKALVTVGVLTAEEQAQLEEALNVLLEDVRARPQQILESDAEDIHSWVEGKLIDKVGQLGKKLHTGRSRNDQVATDLKLWCKDTVSELLTANRQLQSALVETAQNNQDAVMPGYTHLQRAQPVTFAHWCLAYVEMLARDESRLQDALKRLDVSPLGCGALAGTAYEIDREQLAGWLGFASATRNSLDSVSDRDHVLELLSAAAIGMVHLSRFAEDLIFFNTGEAGFVELSDRVTSGSSLMPQKKNPDALELIRGKCGRVQGALTGMMMTLKGLPLAYNKDMQEDKEGLFDALDTWLDCLHWAALVLDGIQVKRPRCQEAAQQGYANATELADYLVAKGVPFREAHHIVGEAVVEAIRQGKPLEDLPLSELQKFSQVIDEDVYPILSLQSCLDKRAAKGGVSPQQVAQAIAFAQARLG
B5: argH V345D (protein)
chain: MALWGGRFTQAADQRFKQFNDSLRFDYRLAEQDIVGSVAWSKALVTVGVLTAEEQAQLEEALNVLLEDVRARPQQILESDAEDIHSWVEGKLIDKVGQLGKKLHTGRSRNDQVATDLKLWCKDTVSELLTANRQLQSALVETAQNNQDAVMPGYTHLQRAQPVTFAHWCLAYVEMLARDESRLQDALKRLDVSPLGCGALAGTAYEIDREQLAGWLGFASATRNSLDSVSDRDHVLELLSAAAIGMVHLSRFAEDLIFFNTGEAGFVELSDRVTSGSSLMPQKKNPDALELIRGKCGRVQGALTGMMMTLKGLPLAYNKDMQEDKEGLFDALDTWLDCLHMAALDLDGIQVKRPRCQEAAQQGYANATELADYLVAKGVPFREAHHIVGEAVVEAIRQGKPLEDLPLSELQKFSQVIDEDVYPILSLQSCLDKRAAKGGVSPQQVAQAIAFAQARLG
B6: argH V345A (protein)
chain: MALWGGRFTQAADQRFKQFNDSLRFDYRLAEQDIVGSVAWSKALVTVGVLTAEEQAQLEEALNVLLEDVRARPQQILESDAEDIHSWVEGKLIDKVGQLGKKLHTGRSRNDQVATDLKLWCKDTVSELLTANRQLQSALVETAQNNQDAVMPGYTHLQRAQPVTFAHWCLAYVEMLARDESRLQDALKRLDVSPLGCGALAGTAYEIDREQLAGWLGFASATRNSLDSVSDRDHVLELLSAAAIGMVHLSRFAEDLIFFNTGEAGFVELSDRVTSGSSLMPQKKNPDALELIRGKCGRVQGALTGMMMTLKGLPLAYNKDMQEDKEGLFDALDTWLDCLHMAALALDGIQVKRPRCQEAAQQGYANATELADYLVAKGVPFREAHHIVGEAVVEAIRQGKPLEDLPLSELQKFSQVIDEDVYPILSLQSCLDKRAAKGGVSPQQVAQAIAFAQARLG
B7: argH M341P (protein)
chain: MALWGGRFTQAADQRFKQFNDSLRFDYRLAEQDIVGSVAWSKALVTVGVLTAEEQAQLEEALNVLLEDVRARPQQILESDAEDIHSWVEGKLIDKVGQLGKKLHTGRSRNDQVATDLKLWCKDTVSELLTANRQLQSALVETAQNNQDAVMPGYTHLQRAQPVTFAHWCLAYVEMLARDESRLQDALKRLDVSPLGCGALAGTAYEIDREQLAGWLGFASATRNSLDSVSDRDHVLELLSAAAIGMVHLSRFAEDLIFFNTGEAGFVELSDRVTSGSSLMPQKKNPDALELIRGKCGRVQGALTGMMMTLKGLPLAYNKDMQEDKEGLFDALDTWLDCLHPAALVLDGIQVKRPRCQEAAQQGYANATELADYLVAKGVPFREAHHIVGEAVVEAIRQGKPLEDLPLSELQKFSQVIDEDVYPILSLQSCLDKRAAKGGVSPQQVAQAIAFAQARLG
B8: argH V345W (protein)
chain: MALWGGRFTQAADQRFKQFNDSLRFDYRLAEQDIVGSVAWSKALVTVGVLTAEEQAQLEEALNVLLEDVRARPQQILESDAEDIHSWVEGKLIDKVGQLGKKLHTGRSRNDQVATDLKLWCKDTVSELLTANRQLQSALVETAQNNQDAVMPGYTHLQRAQPVTFAHWCLAYVEMLARDESRLQDALKRLDVSPLGCGALAGTAYEIDREQLAGWLGFASATRNSLDSVSDRDHVLELLSAAAIGMVHLSRFAEDLIFFNTGEAGFVELSDRVTSGSSLMPQKKNPDALELIRGKCGRVQGALTGMMMTLKGLPLAYNKDMQEDKEGLFDALDTWLDCLHMAALWLDGIQVKRPRCQEAAQQGYANATELADYLVAKGVPFREAHHIVGEAVVEAIRQGKPLEDLPLSELQKFSQVIDEDVYPILSLQSCLDKRAAKGGVSPQQVAQAIAFAQARLG
B9: argH V345Q (protein)
chain: MALWGGRFTQAADQRFKQFNDSLRFDYRLAEQDIVGSVAWSKALVTVGVLTAEEQAQLEEALNVLLEDVRARPQQILESDAEDIHSWVEGKLIDKVGQLGKKLHTGRSRNDQVATDLKLWCKDTVSELLTANRQLQSALVETAQNNQDAVMPGYTHLQRAQPVTFAHWCLAYVEMLARDESRLQDALKRLDVSPLGCGALAGTAYEIDREQLAGWLGFASATRNSLDSVSDRDHVLELLSAAAIGMVHLSRFAEDLIFFNTGEAGFVELSDRVTSGSSLMPQKKNPDALELIRGKCGRVQGALTGMMMTLKGLPLAYNKDMQEDKEGLFDALDTWLDCLHMAALQLDGIQVKRPRCQEAAQQGYANATELADYLVAKGVPFREAHHIVGEAVVEAIRQGKPLEDLPLSELQKFSQVIDEDVYPILSLQSCLDKRAAKGGVSPQQVAQAIAFAQARLG
B10: hisS V316D (protein)
chain: MAKNIQAIRGMNDYLPGETAIWQRIEGTLKNVLGSYGYSEIRLPIVEQTPLFKRAIGEVTDVVEKEMYTFEDRNGDSLTLRPEGTAGCVRAGIEHGLLYNQEQRLWYIGPMFRHERPQKGRYRQFHQLGCEVFGLQGPDIDAELIMLTARWWRALGISEHVTLELNSIGSLEARANYRDALVAFLEQHKEKLDEDCKRRMYTNPLRVLDSKNPEVQALLNDAPALGDYLDEESREHFAGLCKLLESAGIAYTVNQRLVRGLDYYNRTVFEWVTNSLGSQGTVCAGGRYDGLVEQLGGRATPAVGFAMGLERLVLLDQAVNPEFKADPVVDIYLVASGADTQSAAMALAERLRDELPGVKLMTNHGGGNFKKQFARADKWGARVAVVLGESEVANGTAVVKDLRSGEQTAVAQDSVAAHLRTLLG
B11: hisS V316P (protein)
chain: MAKNIQAIRGMNDYLPGETAIWQRIEGTLKNVLGSYGYSEIRLPIVEQTPLFKRAIGEVTDVVEKEMYTFEDRNGDSLTLRPEGTAGCVRAGIEHGLLYNQEQRLWYIGPMFRHERPQKGRYRQFHQLGCEVFGLQGPDIDAELIMLTARWWRALGISEHVTLELNSIGSLEARANYRDALVAFLEQHKEKLDEDCKRRMYTNPLRVLDSKNPEVQALLNDAPALGDYLDEESREHFAGLCKLLESAGIAYTVNQRLVRGLDYYNRTVFEWVTNSLGSQGTVCAGGRYDGLVEQLGGRATPAVGFAMGLERLVLLPQAVNPEFKADPVVDIYLVASGADTQSAAMALAERLRDELPGVKLMTNHGGGNFKKQFARADKWGARVAVVLGESEVANGTAVVKDLRSGEQTAVAQDSVAAHLRTLLG

Biological target: Escherichia coli (laboratory strain)
Assay: barcode share on antibiotic plates over drug-free plates; higher = less susceptible
Description: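 A pool of E. coli strains, each edited to carry one amino-acid change in an essential protein, was grown for 48 h on minimal glucose agar with or without antibiotic; strain barcodes were sequenced; mean of two replicates.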

[1] = antibiotic: carbenicillin, 2× MIC (3.1 µg/mL)
[2] = antibiotic: gentamicin, 2× MIC (MIC 0.45 µg/mL)

| Protein | fold change of barcode share [1] | fold change of barcode share [2] |
| --- | --- | --- |
| B1 | 1.25 ± 0.3 | 0.011 ± 0.0022 |
| B2 | 1.27 ± 0.14 | 0.0216 ± 0.0044 |
| B3 | 0.799 ± 0.15 | 0.0108 ± 0.0048 |
| B4 | 1.34 ± 0.14 | 0.0138 ± 0.002 |
| B5 | 0.526 ± 0.38 | 0.00805 ± 0.0085 |
| B6 | 0.328 ± 0.013 | 0.00854 ± 0.00058 |
| B7 | 16 ± 2.9 | – |
| B8 | 0.592 ± 0.24 | 0.0506 ± 0.062 |
| B9 | 0.498 ± 0.12 | 0.0141 ± 0.0099 |
| B10 | 0.29 ± 0.11 | < 0.00546 |
| B11 | 0.293 ± 0.11 | < 0.0091 |
